About 6,900 (2%) of roughly 340,000 compounds were called active. No stated cut-off is given here; in the data, active means inhibition above about 30%; inactive means below that, where a call was filed. The entries are a selection whose mix differs from that of the whole data set. Entries without a call were filed so in the source.
Each molecule was assayed against D(2) dopamine receptor (Homo sapiens) (UniProt P14416) (assay: HTS Assay for Allosteric Antagonists of the Human D2 Dopamine Receptor: Primary Screen for Antagonists). Conditions: HEK293 TREx D2 cells, calcium flux, dopamine EC80; at 10 µM; stronger effect = higher value.
Sequence of UniProt P14416 (P14416 whole entry, looked up): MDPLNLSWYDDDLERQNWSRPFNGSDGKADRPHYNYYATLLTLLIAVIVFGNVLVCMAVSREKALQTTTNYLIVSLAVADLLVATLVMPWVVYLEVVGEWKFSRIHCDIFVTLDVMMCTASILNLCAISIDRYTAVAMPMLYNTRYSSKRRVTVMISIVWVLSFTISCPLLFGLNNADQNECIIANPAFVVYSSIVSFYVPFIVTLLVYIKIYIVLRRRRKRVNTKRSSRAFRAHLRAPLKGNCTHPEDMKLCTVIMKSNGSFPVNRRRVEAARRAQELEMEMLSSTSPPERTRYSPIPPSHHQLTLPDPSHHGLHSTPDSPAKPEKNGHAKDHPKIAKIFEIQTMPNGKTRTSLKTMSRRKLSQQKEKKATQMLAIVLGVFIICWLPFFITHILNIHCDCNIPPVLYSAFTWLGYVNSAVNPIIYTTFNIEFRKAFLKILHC
Summary of the method: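 Read-out: kinetic calcium fluorescence (1 cycle/s) in inducible HEK293 T-REx D2 cells after an EC80 dopamine addition that followed 180 s compound preincubation. Loss of the dopamine response indicates antagonism.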
Work on `COc1ccc(C(=O)CC2(O)C(=O)N(Cc3ccccc3)c3ccc(Br)cc32)cc1` (configuration not stated) yielded an inhibition of 21.3%. With `CCc1ccc(C(=O)c2cn(CC(=O)NCCc3ccccc3)c3nc(C)ccc3c2=O)cc1` the inhibition was 3.09%. Molecule `COc1cccc(NC(=O)C2CCCN(c3ncnc4onc(-c5ccc(F)cc5)c34)C2)c1` (configuration not stated) has an inhibition of -5.71%. `COc1ccc(Nc2nc(Cl)nc(Nc3ccc(OC)cc3OC)n2)c(OC)c1` was tested, and the inhibition was active: 51.3%. `Cc1ccc(C)c(OCC(=O)Nc2sc3c(c2C#N)CCCC3)c1C` was tested, and the inhibition was -12.2%. `CCC1CCCCN1CCCNC(=O)c1ccc2c(c1)c(C)c(C)n2CC` (configuration not stated) gave an inhibition of -26.2%. `CCOC(=O)c1c(Nc2ccc(C)c(C)c2)nnc(-c2ccccc2)c1-c1ccccc1` was tested, and the inhibition was 17%. Work on `O=C(NCCc1ccccc1)c1c[nH]c2ccc(S(=O)(=O)Nc3ccc(F)cc3F)cc2c1=O` yielded an inhibition of 4.97%. Work on `CCOc1ccc(NC(=O)NCCN2CCN(c3cc(Cl)ccc3C)CC2)cc1` yielded an inhibition of -5.36%. `CCCC(=O)Nc1cc2nn(-c3ccc(OC)cc3)nc2cc1C` gave an inhibition of 14.7%. With `CC1=C(c2ccc(C)c(C)c2)S(=O)(=O)N(Cc2ccc(C(=O)NCc3ccccc3F)cc2)C1=O` the inhibition was -12.3%. `N#C/C(=C\c1ccc(O)cc1)C(=O)NCC1CCCO1` (configuration not stated) gave an inhibition of -18.7%. With `Cc1cc(C)cc(NC(=O)Cn2nnc(-c3ccccc3F)n2)c1` the inhibition was -5.86%. For `O=C(CCc1cn(Cc2ccc(F)cc2)c2ccccc12)NC1CCCCC1`, the inhibition was 0.839%. Molecule `COc1ccc(-c2cc(C(F)(F)F)n3nc(C)c(-c4ccccc4)c3n2)cc1OC` has an inhibition of 11.8%. `CCn1nc(C)c2c(-c3ccccc3)cc(=O)n(C(C)C(=O)Nc3ccc(OC)c(OC)c3)c21` (configuration not stated) gave an inhibition of -6.08%. With `COc1ccc(C2C=C(c3ccccc3)Nc3nc(NC(C)=O)nn32)cc1` (configuration not stated) the inhibition was -4.02%. `CCOC(=O)c1ccccc1NC(=O)CN(c1ccccc1)S(=O)(=O)c1ccc(OCC)cc1` gave an inhibition of 0.244%. `Cc1cccc(NC(=O)Nc2cccs2)c1C` was tested, and the inhibition was -8.18%. With `C=CCc1cc(Cl)ccc1OCCNCCOC` the inhibition was active: 55.2%. Molecule `CCCCCCc1c(C)c2c(cc(C)c3c(C)coc32)oc1=O` has an inhibition of -1.15%. `Cc1ccc(C)c(NC(=O)Cn2ncc3c(C)n(Cc4ccc(F)cc4)c(C)c3c2=O)c1` was tested, and the inhibition was -0.75%. In the case of `CCn1cc(C(=O)OCC(=O)Nc2cc(Cl)ccc2C)c(=O)c2ccc(C)nc21`, the inhibition is reported as -11.7%. `Cc1ccc(NC(=O)C2CCN(S(=O)(=O)c3cccc4nsnc34)CC2)cc1` showed an inhibition of 0.004%. `CCCCOc1ccc(C2C(=O)N(C3CCCCC3)CC(=O)N2C2CCCCC2)cc1` (configuration not stated) was tested, and the inhibition was 12.2%. `Cc1ccc(NC(=O)CN2C(=O)C(c3ccc(F)cc3)=NC23CCCCCC3)c(C)c1` showed an inhibition of 0.578%. Work on `Cc1ccc(C)c(N2CCN(C(=O)c3cc4cc5ccc(C)cc5nc4o3)CC2)c1` yielded an inhibition of -2.21%. With `CC1CCN(S(=O)(=O)c2ccc3nc(NCc4ccc(N(C)C)cc4)ccc3c2)CC1` the inhibition was 4.61%. `CCc1cccc(NC(=O)Cn2c(=O)n(CCCCCC(=O)NCc3ccc(F)cc3)c(=O)c3sccc32)c1` showed an inhibition of -3.35%. In the case of `CCOC(=O)N1CCc2c(sc3c2c(=O)n(-c2ccc(CC)cc2)c(=O)n3Cc2cccc(Cl)c2)C1`, the inhibition is reported as 11.9%. `CCC1CN(C(=O)N2CCC(C(=O)NCCc3ccc(OC)c(OC)c3)CC2)c2ccccc2O1` (configuration not stated) gave an inhibition of -12.3%. `Cc1ccc(C)c(N2CCN(C(=O)C3CCC(CNS(=O)(=O)c4cccs4)CC3)CC2)c1` (configuration not stated) showed an inhibition of -6.68%. Work on `Cc1ccc(CNC(=O)CSc2c(C)cnc3c2c(=O)n(C)c(=O)n3C)cc1` yielded an inhibition of -26.4%. For `COc1cccc(/C=N/NC(=O)CNC(=O)/C=C\c2ccccc2)c1O`, the inhibition was active: 53.8%. `CC(=O)Nc1nonc1-c1nnc(SCC(=O)Nc2cc(C)cc(C)c2)n1-c1ccccc1` was tested, and the inhibition was -0.562%. `CCN(CC)CCN(C(=O)c1ccco1)c1nc2ccc(Br)cc2s1` showed an inhibition of 27.8%. `CCCOc1ccc(-c2nc(SC)[nH]c(=O)c2C#N)cc1OC` showed an inhibition of 0.505%. `COc1ccccc1OCc1ccc(C(=O)NN)o1` was tested, and the inhibition was active: 76.5%. In the case of `O=C(c1ccc2c(c1)N(Cc1ccccc1)C(=O)c1ccccc1S2(=O)=O)N1CCCCCC1`, the inhibition is reported as -7.48%. In the case of `Cc1ccc(S(=O)(=O)c2c(Nc3cc(F)ccc3F)sc(C(=O)c3ccc(F)cc3)c2N)cc1`, the inhibition is reported as 2.68%. With `CCCCN(C)CCCNC(=O)c1ccc2c(c1)N(CC)C(=O)c1ccccc1S2=O` (configuration not stated) the inhibition was active: 69.8%. `CCCN(CCC)CCCNC(=O)Cn1ncc2c3ccccc3n(Cc3ccccc3)c2c1=O` showed an inhibition of -7.12%. `Cc1ccc(C(=O)Nc2ccc(OCc3cc(=O)n4c(C)csc4n3)cc2)cc1` gave an inhibition of 15.8%. `Cc1ccc(Nc2c(-c3ccc(O)cc3)nc3cccc(C)n23)cc1` was tested, and the inhibition was -0.986%. For `Cc1cccc(NC(=O)CSc2nncn2C)c1`, the inhibition was -9.33%. `Cc1nc(-c2ccc(Cl)cc2)sc1CCNC(=O)c1cccs1` was tested, and the inhibition was 11.3%. Work on `CCc1nn(C(CC)C(=O)NCc2ccc(F)cc2)c(=O)c2cc3occc3n12` (configuration not stated) yielded an inhibition of 12.6%. `COc1cc(C(=O)NCC(c2ccco2)S(=O)(=O)c2ccccc2)cc(OC)c1OC` (configuration not stated) showed an inhibition of -2.8%. In the case of `CCCOc1ccc(C(=O)N(Cc2ccc(N(C)C)cc2)CC2CCCO2)cc1` (configuration not stated), the inhibition is reported as -0.053%. For `CC1=C(C(=O)Nc2ccccc2)C(CC(C)C)n2nc(SCc3ccccc3C)nc2N1` (configuration not stated), the inhibition was -4.24%. For `O=C(c1cc2c(s1)-c1ccccc1OC2)N1CCN(c2ccccc2)CC1`, the inhibition was -3.26%. `Cc1cc(C)cc(NC(=O)C2CCCN(C(=O)c3cnn(-c4ccccc4)c3-n3cccc3)C2)c1` (configuration not stated) showed an inhibition of -0.143%. `O=C(CSc1nc2c([nH]c3ccccc32)c(=O)n1-c1ccc(Cl)cc1)N1CCOCC1` gave an inhibition of 2.78%. With `O=C(c1ccc2nc(N3CCOCC3)sc2c1)N1CCC(Cc2ccccc2)CC1` the inhibition was active: 31.8%. `CCC1CCCCN1CC(=O)Nc1cc(C)c2c(=O)oc3ccccc3c2n1` (configuration not stated) showed an inhibition of 0.752%. With `Cc1ccc(-c2nonc2NC(=O)c2ccc(F)cc2)cc1C` the inhibition was -12.6%. `Cc1ccc(NC(=O)N2CCC(c3ccccc3)C2)cc1C` (configuration not stated) was tested, and the inhibition was 2.18%. `Cc1cccc(NC(=O)CSc2c(C)cnc3c2c(=O)n(C)c(=O)n3C)c1C` was tested, and the inhibition was 0.487%. With `O=C(CN1CCCN(Cc2ccccc2Cl)S1(=O)=O)NCc1ccccc1` the inhibition was 0.407%. With `Cc1cccn2c(=O)cc(COc3cccc(NC(=O)COc4ccc(F)cc4)c3)nc12` the inhibition was -3.75%. With `COc1ccccc1CN1C[C@@H]2C[C@@H](C3=Cc4cc(Cl)ccc4OC3)N3CCC[C@@]23C1=O` the inhibition was active: 30.6%. In the case of `CC(NC(=O)c1ccccc1Cl)c1nnc(SCC(=O)Nc2ccc(C(=O)O)cc2)n1C` (configuration not stated), the inhibition is reported as active: 30.5%. `CCc1nnc(NC(=O)C(=O)c2cc(C)n(-c3ccccc3)c2C)s1` was tested, and the inhibition was -19.2%. Molecule `CC(C)N(Cc1ccccc1)C(=O)Cn1ncc2c([nH]c3ccccc32)c1=O` has an inhibition of 5.82%. Work on `O=C(Cn1ccc2cc(S(=O)(=O)N3CCCCC3)ccc21)NCc1cccc(Cl)c1` yielded an inhibition of -10.2%. Molecule `CC1CCC(NC(=O)c2cc3c(Cl)nc4ccccc4c3s2)CC1` (configuration not stated) has an inhibition of -2.63%. `COc1ccc(F)cc1S(=O)(=O)Nc1cccc(-c2ccc(N3CCCCCC3)nn2)c1` was tested, and the inhibition was 11%. With `COc1ccc(NC(=O)CSc2ccccn2)c([N+](=O)[O-])c1` the inhibition was active: 31.3%. In the case of `CCOc1ccccc1NC(=O)Cn1c(=O)n(Cc2ccccc2)c(=O)c2cccnc21`, the inhibition is reported as -3.14%. Molecule `CCOC(=O)C(C)NC(=O)C1CCN(c2ncnc3c2nc2n3CCCCC2)CC1` (configuration not stated) has an inhibition of -15.6%. `C=C(C)Cn1c(SCC(=O)O)nnc1-c1ccc(C(C)(C)C)cc1` was tested, and the inhibition was active: 30.2%. For `Cc1cc(C)c(NC(=O)Cn2nnc(-c3ccccc3)n2)c(C)c1`, the inhibition was -4.57%. Work on `Cc1cc(S(=O)(=O)NCC(c2ccco2)S(=O)(=O)c2ccccc2)ccc1F` (configuration not stated) yielded an inhibition of 6.5%. In the case of `Cc1ccc(OC(=O)CSc2nnc(-c3cccs3)o2)cc1`, the inhibition is reported as 17.2%. `CNC(=O)c1c(NC(=O)/C=C/c2ccccc2Cl)sc2c1CCC2` was tested, and the inhibition was -0.68%. Molecule `Cc1ccccc1C(=O)N(Cc1nc(-c2ccc(Cl)cc2)no1)C(C)C` has an inhibition of -7.68%. Molecule `CCn1c(=O)c2sccc2n2c(CCC(=O)N3CCN(c4ccc(C(C)=O)cc4)CC3)nnc12` has an inhibition of 2.43%. Molecule `CC(NC(=O)CN(c1ccc(Cl)cc1Cl)S(=O)(=O)c1ccccc1)c1ccccc1` (configuration not stated) has an inhibition of 7.05%. With `O=C(Cn1c(-c2cccs2)cc2cc(Cl)ccc21)N1CCN(c2ccccc2F)CC1` the inhibition was 0.251%. `COc1ccc(C(=O)c2oc3ccccc3c2NC(=O)COc2cccc(C)c2C)cc1` gave an inhibition of -17.8%. With `COc1ccc(NC(=O)C(Cc2ccccc2)n2cccc2)cc1OC` (configuration not stated) the inhibition was -0.0545%. Work on `COc1cc(-c2noc(CCC(=O)Nc3cc(C)ccc3C)n2)cc(OC)c1OC` yielded an inhibition of 0.781%. `COc1ccc(OC)c(-n2nnnc2SCC(=O)Nc2ccccc2OC)c1` was tested, and the inhibition was active: 31.1%. `Cc1ccccc1Cn1c2ccccc2c2cnn(CC(=O)NCCc3ccccc3)c(=O)c21` showed an inhibition of 14.8%. `COc1ccc(NC(=O)CCS(=O)(=O)c2ccc3nc(C)sc3c2)cc1Cl` was tested, and the inhibition was 7.6%. Work on `Cc1ccc(-n2ncc(C(=O)NCCc3c[nH]c4ccccc34)c2C2CCN(C(=O)OC(C)(C)C)CC2)cc1C` yielded an inhibition of 13.4%. With `CCn1c(=O)c([N+](=O)[O-])c(NCCN(C)C)c2ccccc21` the inhibition was active: 59.2%. In the case of `COc1ccc(CNC(=O)CN2C(=O)CSc3ccc(S(=O)(=O)N4CCOCC4)cc32)c(OC)c1`, the inhibition is reported as -0.151%. Molecule `COc1cccc(CNC(=O)c2cc(S(=O)(=O)N3CCCCC3)cn2C)c1` has an inhibition of 21.8%. Work on `CC(=O)Nc1ccc(NC(=O)CSc2nc3ccccc3nc2N2CCC(C)CC2)cc1` yielded an inhibition of -3.79%. Work on `COc1ccc(OC(=O)c2nc(SCc3ccc(F)cc3)ncc2Cl)cc1` yielded an inhibition of -5.79%. `O=c1c(S(=O)(=O)c2ccccc2)cn(Cc2cccc(F)c2)c2cc(N3CCOCC3)c(F)cc12` showed an inhibition of 1.28%. Work on `CCOc1ccc(NC(=O)c2cnn3c2NC(c2cccc(OC)c2)=CC3c2ccccc2)cc1` (configuration not stated) yielded an inhibition of -2.71%. With `COc1cccc(-c2nnc(-c3ccccc3NC(=O)c3cccc(C(F)(F)F)c3)o2)c1` the inhibition was -7.93%. With `CCOC(=O)c1cc(OC(=O)c2ccc(C)cc2)n(-c2ccccc2)n1` the inhibition was -5.32%. Molecule `Cc1ccc(C(=O)Nc2nnc(S(=O)(=O)N3c4ccccc4CC3C)s2)cc1` (configuration not stated) has an inhibition of -4.01%. In the case of `COc1ccc(NC(=O)c2ccco2)cc1NC(=O)COc1ccccc1`, the inhibition is reported as 9.62%.
Further: 0% is about no effect.
